Lines with a small IC50 respond at low doses; a fit beyond the top or the lowest dose is shown as a bound at that dose. AUC sums up the same curve from the lowest dose to the 256-fold higher top dose; it is 1 without any effect and falls as sensitivity rises. For part of these data: The top dose, if marked as inferred, was calculated from the reported fits. For part of these data: Where an entry number is given, a second screen of the drug exists; the two often differ.
Key:
Experiment in all cases: Viability of human cancer cell lines after 72 h of drug (GDSC screen)
[1] = compound: O=C(NC1CC1)c1cccc(-c2ccc3c(NC(=O)C4CC4)n[nH]c3c2)c1 [XMD13-2]; settings: top dose 10.24 µM; top dose inferred
Protocol: (§1)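 Human cancer cell lines in 384-well plates, medium with 10% serum, drug for 72 h over a 256-fold dose range (nine 2-fold or five 4-fold steps up to the top dose). Adherent lines were fixed and stained with the nucleic acid dye Syto60, suspension lines read with resazurin; signal relative to control wells, capped at 0 and 100%. One two-parameter sigmoid per drug and line, fitted in a mixed model over all curves with the slope shared within a line.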

[2] = compound: CC1(C)CC(=O)c2c(C(F)(F)F)nn(-c3ccc(C(N)=O)c(N[C@H]4CC[C@H](O)CC4)c3)c2C1 [SNX-2112]; settings: top dose 2.56 µM
Protocol: as §1

[3] = compound: CC[C@]1(O)C[C@@H]2CN(CCc3c([nH]c4ccccc34)[C@@](C(=O)OC)(c3cc4c(cc3OC)N(C)[C@H]3[C@@](O)(C(=O)OC)[C@H](OC(C)=O)[C@]5(CC)C=CCN6CC[C@]43[C@@H]65)C2)C1 [Vinblastine]; settings: top dose 0.1 µM; top dose inferred
Protocol: as §1

[4] = compound: CN(C)C/C=C/C(=O)Nc1cc2c(Nc3ccc(F)c(Cl)c3)ncnc2cc1O[C@H]1CCOC1 [Afatinib]
Protocol: as §1

[5] = compound: CN(c1ncccc1CNc1nc(Nc2ccc3c(c2)CC(=O)N3)ncc1C(F)(F)F)S(C)(=O)=O [PF-562271]; settings: top dose 2.56 µM; top dose inferred
Protocol: as §1

[6] = top dose 0.5 µM, screen: GDSC drug entry 1032
[7] = top dose 10 µM, screen: GDSC drug entry 1377, top dose inferred

Cell Line	AUC [1]	IC50 [1] [nM]	AUC [2]	IC50 [2] [nM]	AUC [3]	IC50 [3] [nM]	AUC [4, 6]	IC50 [4, 6] [nM]	AUC [4, 7]	IC50 [4, 7] [nM]	AUC [5]	IC50 [5] [nM]
COLO-684 (endometrium, suspension)	0.898	> 10200	0.472	133	0.546	8.46	0.984	> 500	0.983	> 10000	0.927	> 2560
COLO-783 (melanoma, adherent)	0.983	> 10200	0.918	> 2560	0.672	18.4	0.991	> 500	0.975	> 10000	0.988	> 2560
COLO-800 (melanoma, adherent)	0.82	5650	0.87	2270	0.475	5.37	0.946	> 500	0.945	> 10000	0.988	> 2560
COLO-824 (breast, adherent)	0.969	> 10200	0.525	187	0.873	99.4	0.975	> 500	0.963	> 10000	0.925	> 2560
COR-L23 (large cell lung carcinoma, adherent)	0.888	> 10200	0.632	365	0.446	4.47	0.982	> 500	0.979	> 10000	0.887	> 2560
COR-L88 (small cell lung carcinoma, adherent)	0.855	> 10200	0.717	752	0.764	43	0.985	> 500	0.979	> 10000	0.983	> 2560
COR-L95 (small cell lung carcinoma, adherent)	0.941	> 10200	0.619	360	0.919	> 100	0.985	> 500	0.985	> 10000	0.987	> 2560
COR-L279 (small cell lung carcinoma, suspension)	0.887	9300	0.715	598	0.862	71.1	0.991	> 500	0.975	> 10000	0.963	> 2560
CP50-MEL-B (melanoma, adherent)	0.985	> 10200	0.618	338	0.589	10.9	0.972	> 500	0.977	> 10000	0.968	> 2560
CP66-MEL (melanoma, adherent)	0.976	> 10200	0.947	> 2560	0.826	72.1	0.986	> 500	0.969	> 10000	0.957	> 2560
CPC-N (small cell lung carcinoma, suspension)	0.918	> 10200	0.679	533	0.362	2.5	0.909	> 500	0.93	> 10000	0.979	> 2560
CS1 (bone, adherent)	0.746	3570	0.468	130	0.502	6.35	0.984	> 500	0.982	> 10000	0.962	> 2560
CTB-1 (B-cell lymphoma, suspension)	0.523	755	0.23	19.1	0.489	5.79	0.976	> 500	0.904	> 10000	0.954	> 2560
CTV-1 (acute myeloid leukaemia, suspension)	0.73	2460	0.207	27.8	0.257	1.5	0.971	> 500	0.982	> 10000	0.924	> 2560
Ca9-22 (head and neck, adherent)	0.846	6660	0.512	172	0.468	5.15	0.617	63.9	0.256	134	0.908	> 2560
Ca-Ski (cervix, adherent)	0.73	3170	0.465	127	0.451	4.5	0.876	> 500	0.87	> 10000	0.94	> 2560
CaR-1 (large intestine, adherent)	0.958	> 10200	0.546	227	0.764	55.5	0.807	436	0.707	3260	0.929	> 2560
Caov-4 (ovary, adherent)	0.975	> 10200	0.974	> 2560	0.937	> 100	0.98	> 500	0.944	> 10000	0.979	> 2560
Capan-2 (pancreas, adherent)	0.972	> 10200	0.979	> 2560	0.872	> 100	0.922	> 500	0.82	7390	0.967	> 2560
D-247MG (glioma, adherent)	0.745	4280	0.432	97.7	0.551	9.07	0.98	> 500	0.977	> 10000	0.894	> 2560
D-263MG (glioma, adherent)	0.97	> 10200	0.809	1690	0.54	8.23	0.976	> 500	0.962	> 10000	0.957	> 2560

From the supplement of paper PMC4967469
